Reference: PubChem BioAssay AID1240 (Sanford-Burnham Center for Chemical Genomics, 2008)
Out of some 50,000 compounds screened, about 800 (1.6%) showed an effect of 50% or more. This is one part of the list.

target: Bcl-2-like protein 10 (Homo sapiens) (UniProt Q9HD36); assay: TR3 peptide-Bcl-B binding displacers, biochemical primary FP assay, phenotype converters (AID 1240); details: GST-Bcl-B / FITC-TR3 peptide fluorescence polarization; stronger effect = higher value; compound at 3.75 mg/L;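 note: 0% = Bcl-B with tracer peptide and DMSO and 100% = tracer peptide lacking Bcl-B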
Chain of UniProt Q9HD36 (Q9HD36 whole entry, looked up): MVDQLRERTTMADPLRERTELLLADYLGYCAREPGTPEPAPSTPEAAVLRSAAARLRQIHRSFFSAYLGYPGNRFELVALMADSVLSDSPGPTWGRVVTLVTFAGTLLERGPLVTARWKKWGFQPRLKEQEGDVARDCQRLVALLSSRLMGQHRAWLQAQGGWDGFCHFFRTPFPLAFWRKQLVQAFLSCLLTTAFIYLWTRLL

SMILES | displacement [%]
CSc1ccc(S(=O)(=O)N(CC(=O)Nc2cc(C)cc(C)c2)c2ccc(C)cc2)cc1 | 13.6
COc1ccc(NC(=O)C(=O)NCc2ccccc2Cl)cc1 | 10.1
COc1ccc(/C=C/C(=O)NCCSCc2ccccc2)cc1OC | -5.8
Cc1ccccc1N1C(=O)c2cccc3c(N4CCCCC4)ccc(c23)C1=O | 15.9
CCOC(=O)C1=C(C)N=c2s/c(=C\c3ccc(OC)c(OC)c3OC)c(=O)n2C1c1ccccc1 (stereo not drawn) | 210
COc1ccccc1CNC(=O)C(=O)Nc1cccc(C(F)(F)F)c1 | 3.9
Oc1cccc(/C=N/Nc2nc3ccccc3s2)c1 | -17
COc1ccccc1/C=C1\SC(=S)N(NC(=O)c2cccnc2)C1=O | 1.5
O=C(COc1ccc2ccccc2c1)N1CCN(c2ccccc2)CC1 | -10.1
CCCC(=O)Nc1sc(C)c(C)c1C(=O)Nc1ccccc1OC | -5.6
O=C(Nc1ccc(F)c(F)c1)C1CC1c1ccccc1 (stereo not drawn) | -0.1
Cc1ccc(/C=C2\SC(N3CCC(C)CC3)=NC2=O)o1 | 6.7
COc1ccc(OC)c2c1C(=O)c1ccccc1C2=O | 101
CCOC(=O)CC(=O)CSc1nccc(N(C)C)c1C#N | 1.7
O=C(CCCCC(=O)NN=Cc1ccncc1)NN=Cc1ccncc1 | 7.3
Cc1cc(OCC(=O)Nc2c(C)ccc3nsnc23)cc(C)c1Cl | 32.2
COc1ccc(/C=C/C(=O)/C=C/c2ccc(N(C)C)cc2)cc1 | -3
O=C(Nc1ccc(F)cc1)/C(=C\c1ccc(Br)cc1)NC(=O)c1ccccc1F | -10.9
O=C(NCCOCc1ccccc1)c1ccccc1Br | -6.8
O=C1/C(=C/c2ccc([N+](=O)[O-])cc2)SC(=S)N1c1ccc(F)cc1 | 5.2
CCCCOC(=O)COc1cc2oc(=O)c3c(c2cc1Cl)CCC3 | 6.3
O=C(ON=C1c2ccccc2-c2ccccc21)c1ccc(Cl)cc1Cl | 13.1

SMILES | displacement [%]
O=C(CCc1ccccc1O)N/N=C/c1ccc(Sc2cccc3cccnc23)o1 | 7.2
CCOc1ccc(N2C(=O)NC(=O)/C(=C\c3ccc(I)o3)C2=O)cc1 | 2.7
COC(=O)c1sccc1NC(=O)c1c(-c2c(Cl)cccc2Cl)noc1C | 15
CCc1cc(C(=O)N/N=C/c2ccc(O)cc2O)c2ccccc2n1 | -16.7
N#C/C(=C\c1ccc(-c2ccc(Br)cc2)o1)c1nc2ccccc2[nH]1 | 2.1
Cc1cc(OCC(=O)NCc2ccncc2)ccc1Br | 7.4
O=S(=O)(Oc1ccc2ccccc2c1)c1ccc(F)cc1 | 8.2
CCCC(=O)NC(c1ccc(OC)c(OC)c1)c1c(OC(=O)COc2ccccc2)ccc2ccccc12 (stereo not drawn) | 7.4
O=C(COc1ccc2ccccc2c1)Nc1ccc(N2CCOCC2)c(Cl)c1 | -2.7
CC(C)C1=NN(C(=O)c2ccccc2)C(O)(C(C)(C)C)C1 (stereo not drawn) | 7.9
COc1ccc(OC)c(NC(=O)c2ccc(OC)cc2OC)c1 | -1.9
O=C(Nc1ccc(NC(=O)c2cccc(Br)c2)cc1)c1ccccc1 | 0
CCOC(=O)c1c(NC(=O)Cc2ccc(OC)cc2)sc(C(=O)Nc2ccccc2)c1C | -8.3
CC(=O)Nc1ccc(S(=O)(=O)N(Cc2ccccc2)c2ccccn2)cc1 | 3.8
COc1cc(C=C2C(=O)N(c3ccc(C)cc3)C(=S)N(c3ccc(C)cc3)C2=O)ccc1O | 9
CC1SC(c2ccc(OCc3ccccc3)cc2)NC1=O (stereo not drawn) | -9.7
Cc1cccc(C(=O)NNC(=O)COc2ccccc2Cl)c1O | -3.3
O=C1CC(N2CCN(c3ccccc3F)CC2)C(=O)N1c1cccc(Cl)c1 (stereo not drawn) | -7.4
CCOc1ccc(S(=O)(=O)n2ccnc2C(C)C)c2ccccc12 | 13
Cc1ccc(NC(=O)C(=O)NCC(C)C)c(C)c1 | 13.5
COc1cc(S(=O)(=O)n2ccnc2C)c(OC)cc1Cl | 2.2
CC(=O)c1ccc(NC(=O)CSC(N)=O)cc1 | 3.5

SMILES | displacement [%]
C=CCNC(=O)CN(c1ccc(OC)c(Cl)c1)S(C)(=O)=O | -4.4
O=C1CSC(=O)N1CNc1ccccc1Cl | 15
CC1=C(C(=O)OCCc2ccccc2)C(c2ccccc2OCc2ccccc2)C2=C(CCCC2=O)N1 (stereo not drawn) | -6
COC(=O)C1=C(C)NC2=C(C(=O)CC(c3ccccc3)C2)C1c1ccccc1 (stereo not drawn) | 3.3
COC(=O)c1c(C)oc2ccc(OCc3cccc(F)c3)cc12 | 9.8
Cc1ccc(C(=O)Nc2ccc(-c3nc4ncccc4o3)cc2)cc1C | 21.5
CS(=O)(=O)N1CCN(c2ccc(Cl)cc2[N+](=O)[O-])CC1 | -2.7
O=C(N/N=C/c1cc([N+](=O)[O-])c(N2CCOCC2)cc1N1CCOCC1)Nc1ccccc1 | -3.3
COc1ccc(C(=O)Nc2ccc(-c3ccc(NC(=O)c4ccc(OC)cc4)c(OC)c3)cc2OC)cc1 | 13.8
COc1ccccc1NC(=O)C1=C(C)NC(=S)NC1c1ccccc1OC (stereo not drawn) | 6
CCOC(=O)N1CCN(C(=O)COc2ccc(Cl)cc2Br)CC1 | -2.4
Cc1ccc(SCCc2nnc(N)s2)cc1 | 2.5
COc1cc(/C=C2\SC(N)=NC2=O)cc(Br)c1OCc1cccc2ccccc12 | -62.1
Cc1ccc(N2C(=O)C(Cl)=C(Nc3cccc(C)c3C)C2=O)cc1 | -5
COc1cc(C(=O)Nc2c(C(C)C)cccc2C(C)C)cc(OC)c1OC | -2
Cc1ccc(-c2csc(/C(C#N)=C/c3sccc3C)n2)c(C)c1 | 69.3
O=[N+]([O-])c1ccccc1C=NCCC12CC3CC(CC(C3)C1)C2 | 5.1
O=C1Nc2c(S(=O)(=O)N3CCOCC3)cc(S(=O)(=O)N3CCOCC3)c3cccc1c23 | -0.3
O=C(CSc1ncn[nH]1)NC(c1ccccc1)c1ccccc1 | 10.6
c1ccc(-c2nnc(N3CCOCC3)c3ccccc23)cc1 | -3.6
CCCOc1ccccc1/C=C1\N=C(c2ccccc2)OC1=O | 64
CCOC(=O)c1[nH]cnc1C(=O)N1CCCCC1 | 14.5

SMILES | displacement [%]
CCOc1cc(/C=N/NC(=O)c2cc(C)[nH]n2)ccc1OC(=O)c1cccc2ccccc12 | -17.8
O=C1NC(=O)N(c2ccccc2)C(=O)/C1=C\c1ccccc1OCc1ccc(F)cc1 | -16.6
Cc1cc(NC(=O)c2ccc(I)cc2)ccc1NC(=O)c1ccccc1 | 2.6
CCC1=NN(C(=O)Cc2ccc(OC)cc2)C(O)(c2ccncc2)C1 (stereo not drawn) | -8.9
COc1ccc(C(=O)Nc2ccc(NC(=O)c3cc4ccccc4o3)c(OC)c2)cc1Br | -2.8
Cc1ccc(C)n1-n1cnc2scc(-c3ccccc3)c2c1=O | 25.2
CCOC(=O)c1c(C)oc2cc(Br)c(OC(=O)c3ccc([N+](=O)[O-])cc3)cc12 | 8.5
COc1ccc(Cc2noc(COc3ccc(Cl)cc3)n2)cc1 | 2.7
O=C(O)CCC(=O)N1N=C(c2c(-c3ccccc3)c3cc(Cl)ccc3[nH]c2=O)CC1c1ccccc1 (stereo not drawn) | -2.6
O=C(Nc1c(C(=O)N2CCCCC2)cnn1-c1ccccc1)c1cccc(F)c1 | 0.8
CCOC(=O)C1=C(C)N(CCOC)C(=O)/C1=C\c1sccc1C | 11.3
COc1ccc(OC)c(C2NC(=O)NC(C)=C2C(=O)Nc2ccc(C)cc2)c1 (stereo not drawn) | -1.4
COc1ccc(OC)c(NC(=O)c2c(C)c(-c3ccccc3)nc3ccccc23)c1 | 2.7
CCC(C)c1ccc(OCCOc2c(Cl)cc(/C=N/n3cnnc3)cc2OC)cc1 (stereo not drawn) | -12.9
COC(=O)CNC(=O)Cc1ccccc1[N+](=O)[O-] | 2.1
CCOC(=O)c1ccccc1N/C=C(\C#N)C(=O)NCc1ccccc1 | 10.1
COc1ccccc1-n1cnc2cc(Nc3nnc(C)c4ccccc34)ccc21 | 7.8
Cn1cnc2c1c(=O)n(Cc1ccc(Br)cc1)c(=O)n2C | -2
COC(=O)c1sc(NC(=O)COc2ccc3ccccc3c2)c(C(N)=O)c1C | -1.6
O=C(NCc1ccccn1)c1ccc(I)cc1 | 11.4
C/C(=N\Nc1nc(-c2ccccc2)nc(C)c1C)c1ccc(Br)cc1 | -10.3
O=C(c1ccc(S(=O)(=O)N2CCOCC2)cc1)N1CCN(CCN2C(=O)c3cccc4cccc(c34)C2=O)CC1 | 7.2

SMILES | displacement [%]
CCN1C(=O)/C(=C\c2ccc(-c3ccc(OC)c(Cl)c3)o2)SC1=S | 16.1
COc1ccc(-c2ccc(/C=C/C(=O)O)o2)cc1 | 0.6
O=C(c1ccc(Cl)cc1)N(c1ccccc1)C1C=CS(=O)(=O)C1 (stereo not drawn) | -3
O=C1NN(c2ccccc2)C(=O)/C1=C/c1cccc(Cl)c1 | -14
O=C(CCNc1ccc(I)cc1)c1cccs1 | -12.3
CCOc1ccccc1CN(CCc1ccc2c(c1)OCO2)Cc1cc(OC)ccc1OC | -7.2
O=C(Nc1ccc(Cl)c(Cl)c1)c1cc2cc(Br)ccc2oc1=O | -8.9
N#Cc1c(NC(=O)C2c3ccccc3Oc3ccccc32)sc2c1CCCCC2 | 9.4
O=S(=O)(Cc1ccccc1)NCCOc1ccc(Cl)cc1 | -5.2
CC1CCN(Cn2[nH]c(=O)ccc2=O)CC1 | 10.1
Cc1[nH]n(-c2ccccc2)c(=O)c1C=Nc1ccc(Cl)cc1Cl | -4.3
COC(=O)c1ccccc1NC(=O)COc1cccc2ccccc12 | -2.6
Cc1cccc(Cc2cnc(NC(=O)CCCN3C(=O)/C(=C/c4ccccc4)SC3=S)s2)c1 | 6.9
COc1ccc(N=C2NC(=O)/C(=C\C=C\c3ccccc3)S2)cc1 | -1.3
COCCOC(=O)C1=C(C)NC2=C(C(=O)CC(C)(C)C2)C1c1ccc(Cl)cc1Cl (stereo not drawn) | 1.9
COc1ccc(-c2cc(C(F)(F)F)n3nc(C(=O)N4CCc5ccccc5C4)cc3n2)cc1 | 12.7
COc1ccc(-c2cc(C(=O)Nc3ccccc3C)c3ccccc3n2)cc1 | 11.2
Cc1cc(N2CCN(C3=NCC(C)(C)S3)CC2)n2c(nc3ccccc32)c1C#N | 1.7
O=C(c1cc(F)c(F)cc1Cl)N1CCN(c2ccc([N+](=O)[O-])c3ncccc23)CC1 | 7.8
O=C(Nc1cccc2nsnc12)c1ccc2c(c1)OCCO2 | 12.3
